The other results are listed elsewhere or left out.
Test system: PfHDP1 homeodomain (GST-tagged)
Experiment: gcPBM binding intensity (ln(normalized median fluorescence intensity)); higher = stronger DNA binding
How it was run: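 GST-tagged P. falciparum DNA-binding domains, expressed in E. coli (about 25 μg on average), were applied for 1 h to an Agilent 4 × 180k array of primer-extended double-stranded 36-bp intergenic genomic probes plus negative controls. The binding buffer was 1× PBS with 1% milk, 0.2 mg/ml BSA, 0.5% salmon testes DNA and 0.03% Triton X-100. Bound protein was detected with Alexa488 anti-GST antibody and scanned at 488 nm. Binding intensity is the highest Masliner-normalised natural-log median intensity across replicate spots of either probe orientation.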

Sequence	gcPBM binding intensity (ln)
ATAGAATATTAATAATTAAAAATAAAATAAAATAAA [CACACA_negctrl_site1810]	6.46
CTTAATAAGAATAAATGTACAAGGGATAAAAAATTT [XGTACX_site3213]	6.84
ATTATATTCTTTACTACCAATTAGTAGAAAATAAAA [CACACA_negctrl_site1096]	6.32
ATATATATATGTTTGTGTACTTATGATATCATATAA [XGTACX_site3276]	8.54
TAAATAAATAAAAATAGTACATAATTATTATTATTA [XGTACX_site4981]	6.2
TTTTAAAAAATATAATAATATAAATATGTTTTATAC [CACACA_negctrl_site643]	6.19
TTAAAATAGCTAGTTTGTACATAAAATATATTACTT [XGTACX_site202]	6.18
AATATATATATATATATTTTTGTTAGAATATGGAAT [GTGCAC_negctrl_site434]	6.55
ATATATATGTATGTATGTACACACAAAAAATGGAAT [XGTACX_site7879]	7.94
ATATGCTATTATATATGTACACACCAATTTATTTAT [XGTACX_site8364]	7.02
TACAAAATAAATGGAACATGCAAAAAAATTGATTAA [TGCATGCA_site790]	6.56
AAAAAAAAAAAAAAAACACACATTTTAAGAAAAAAA [CACACA_site2926]	6.46
TATATTAGAAAGGATACACACATATATATATATCTA [CACACA_site570]	6.19
TATACGCAGAAACACACACACATACACCCACATACA [CACACA_site1723]	6.9
TATCTTATAAACTCTGCACACATAATATATTAAATG [CACACA_site8587]	8.34
TTAATTAATTTTTCAGTGCAAATAAAAAATATTTAA	9.6
CAAAAGTAAGCACGCACACACAACATGAAATAAACT [CACACA_site6223]	7.18
AAAAATTTTAATTAGGAACACACATATATATATATA [CACACA_site9016]	9.03
AACGTTCATAATTATTGTACCCTCATTTTATTTTTT [XGTACX_site503]	6.93
ATAACTTTTTAAAAGACACACATAAGAAAAACAAAA [CACACA_site723]	7.17
ATAAAACGAAGATGTTGTACGTACAAATAAATGAAT [XGTACX_site2472]	7.45
TTTAATTATAAAACGTGTACATAATTATAATTACAT [XGTACX_site2206]	6.47
AAAAAATGGATGATCACACACTTCATAAAAATTGCA [CACACA_site5256]	6.18
AAAAAAAAAAAAAAATGTACCCATATATAAATATAT [XGTACX_site4061]	6.11
AAAAATAGTATAAGTAGTACAACTGAAAAGTTATGT [XGTACX_site7488]	6.6

Source: the supplement of paper PMC11417369
